Source: PubChem BioAssay AID1159614 (National Center for Advancing Translational Sciences (NCATS), 2016)
Among all 45,000 compounds or so, about 65 (0.1%) were called active. Calls come from the whole dose curve; as a rule, active = well fitted activation curve with a large enough effect; inconclusive = small, poorly fitted or top-dose-only effect; inactive = no such curve, though single readings can be large or run the other way. The list shows a part of the results.

molecular target: Galactocerebrosidase (Homo sapiens) (UniProt P54803); assay: A Novel Cell-Based Assay to Identify Small Molecules for B -Galactocerebrosidase; settings: 145M-Twi-hGALC-G270D cells (Twitcher mouse brain line with human GALC G270D), HMU-beta-Gal fluorescence, 48 h; series mostly up to 57.5 µM; activation: at the top concentration; note: 0% is about no effect; nearly all actives have a fitted effect of over 65% in size
Text: Lysosomal storage diseases (LSDs) are caused by genetic mutations in genes encoding proteins important for normal lysosomal function. Globoid cell leukodystrophy (GLD), mostly known as Krabbe disease, is a prototype of the neurological LSDs caused by deficiency of beta-galactocerebrosidase (GALC). In brain specimens of GLD patients, psychosine levels are substantially elevated. At elevated concentrations, psychosine becomes cytotoxic to neuronal cells, particularly to oligodendrocytes (OLG), neural cells responsible for myelin formation. Therefore, the biochemical disturbances in GLD are manifested by different degrees of brain demyelination resulting in a broad spectrum of neurological manifestations. Most of the FDA-approved therapies are based on enzyme replacement therapeutic (ERT) agents, which treat non-neurological symptoms of Gaucher disease, Fabry disease, few mucopolysaccharidoses and Pompe disease. Unfortunately, in GLD, a primarily neurological LSD, ERT agents, as large molecular weight molecules unable to cross the blood-brain barrier, which makes this an inefficacious therapeutic approach. In GLD, increasing the residual GALC activity just above the critical threshold (~10% of wild type enzymatic activity), the cytotoxic levels of psychosine will be reduced, avoiding the OLGs apoptosis and the subsequent demyelination process. This will translate in disease stabilization and amelioration of GLD patient symptoms.
A cell-based assay in 1,536-well plate format was developed to implement a quantitative high-throughput screening (qHTS) assay using GLD-disease relevant cells to identify small molecules that produce enhancements of the residual enzymatic activity levels of mutants GALC found and prevalent in GLD patients. Compounds that are active may therefore have some therapeutic application for GLD. After the treatment of live cells for a determined period, using a fluorescent GALC specific substrate, the mutant residual GALC activity is measured. This cell-based qTHS assay was used to screen part of the MLPCN library for small molecule able to increase the mutant GALC enzymatic activity. In this assay, increased fluorescent signal corresponds to enhanced levels of mutant GALC residual enzymatic activity. Activation is the desired outcome for this assay.
NIH Chemical Genomics Center [NCGC]
NIH Molecular Libraries Probe Centers Network [MLPCN]
Assay Submitter (PI): Gustavo Maegawa MD,PhD, University of Florida, Gainesville, FL
2)#Two cell lines were established for the assay: 145M-Twi-hGALC-G270D (brain-derived Twitcher cell line stably expressing human GALC-G270D) and 145M-Twi-hGALC-WT (same 145M-Twi stably expressing human GALC wild type). The Twitcher is the murine C57B/6 model for GLD with naturally occurring homozygous nonsense GALC mutation. The 145M-Twi cell line was established at Maegawa lab (Ribbens J et al 2014).
a.#Media: DMEM/F12 (1:1) with 10% fetal bovine-serum (FBS) with penicillin/streptomycin (PS-1X - 100 I.U./mL of penicillin+100 ug/mL of streptomycin).
b.#The 6-Hexadecanoylamino-4-methylumbelliferyl-b-D-galactoside (HMU-B-gal) substrate was prepared as per Wiederschain et al 1992. Using 20-mL borosilicate tubes, 2.20 mg of HMU-b-Gal was added in each tube to prepare substrate-film with a final air-nitrogen stream evaporation to remove all diluent solvents.
c.#The HMUb-Gal substrate buffer consists of 0.2 M Na2HPO4 (sodium phosphate dibasic)/ 0.1 M Citric Acid with the pH adjusted to 5.2 using HCl. Sodium Azide at 0.02% and Sodium Taurocholate (NaTC) at 1 mg/mL were added to this substrate buffer.
d.#The HMU-b-Gal stopping buffer consist of 0.5 M NaHCO3 (sodium bicarbonate) /0.5 M Na2CO3 (sodium carbonate). […] Triton X-100 at 0.25% was added.
4)#Preparation of HMU-b-Gal substrate tubes
Adding 18.6 mL of the HMUb-Gal substrate buffer to each 20-mL tube (2.20 mg of HMU-b-Gal) will reach a concentration of 0.2 mM. Vortex well the tube until the solution is fully homogenized (clear cloudy solution). […]

Chain of UniProt P54803 (P54803 whole entry, looked up): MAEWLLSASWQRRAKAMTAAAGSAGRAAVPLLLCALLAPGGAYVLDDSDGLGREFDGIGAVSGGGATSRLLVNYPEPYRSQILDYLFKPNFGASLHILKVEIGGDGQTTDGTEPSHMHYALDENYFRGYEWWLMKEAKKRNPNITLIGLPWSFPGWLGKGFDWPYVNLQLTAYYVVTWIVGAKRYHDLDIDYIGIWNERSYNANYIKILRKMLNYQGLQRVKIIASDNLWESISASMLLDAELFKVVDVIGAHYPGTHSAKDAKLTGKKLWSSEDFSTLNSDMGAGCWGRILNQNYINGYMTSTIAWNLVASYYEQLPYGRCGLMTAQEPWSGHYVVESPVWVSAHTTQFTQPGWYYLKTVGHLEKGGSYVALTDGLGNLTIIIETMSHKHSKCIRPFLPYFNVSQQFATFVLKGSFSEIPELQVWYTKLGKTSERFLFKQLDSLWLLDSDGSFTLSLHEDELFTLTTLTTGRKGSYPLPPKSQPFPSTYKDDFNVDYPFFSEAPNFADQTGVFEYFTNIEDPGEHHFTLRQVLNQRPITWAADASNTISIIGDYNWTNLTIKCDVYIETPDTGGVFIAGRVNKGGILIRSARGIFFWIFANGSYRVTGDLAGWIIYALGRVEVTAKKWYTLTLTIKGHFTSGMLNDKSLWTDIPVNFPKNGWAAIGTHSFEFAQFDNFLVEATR

SMILES | activation
CC1CCCCN1Cc1c(O)ccc2c(=O)c(-c3ccccc3)coc12 (stereo not drawn) | inactive: 1.3%
COc1cccc(CNS(=O)(=O)c2ccc(N3CCCCS3(=O)=O)cc2)c1 | inactive: -11%
CCOC(=O)C1=C(CN2CCCCC2)NC(=O)NC1c1ccc(C)cc1 (stereo not drawn) | inactive: 4.6%
Cc1ccc(CNC(=O)c2sc3nc(-c4ccc(F)cc4)ccc3c2N)cc1 | inactive: 1.52%
COc1ccc(Cn2ccc3nc(C)c(C(=O)NCc4ccc(OC)cc4OC)cc3c2=O)cc1 | inactive: -1.79%
COC(=O)c1ccccc1NC(=O)CCc1c(C)nc2c(c(C)nn2-c2ccccc2)c1C | inactive: -12.3%
COc1ccc(-n2nnc(-c3nc(-c4ccccc4C)no3)c2N)cc1Cl | inactive: -7.98%
COc1ccc(C2CC(=O)c3c([nH]c(C(=O)OC4CCCCCC4)c3C)C2)cc1OC (stereo not drawn) | inactive: -13.1%
COc1cccc(CNC(=O)CCCn2nc(C)n3c(cc4sccc43)c2=O)c1 | inactive: -7.56%
CCOC(=O)c1cnc2c(C)cc(Cl)cc2c1NCCc1ccc(OC)c(OC)c1 | inactive: 5.01%
O=C(Cn1ncc2c([nH]c3ccccc32)c1=O)NCc1cccc(Cl)c1 | inactive: -9.44%
COc1ccc(NC(=O)C(C)n2c(C)c3cnn(-c4ccccc4)c(=O)c3c2C)cc1Cl (stereo not drawn) | inactive: -22.3%
CCOC(=O)c1cc(-c2ccc(F)cc2)n(CCC(=O)NCc2ccccc2OC)c1C | inactive: -41.6%
CC(C)COc1ccc(-c2nonc2NC(=O)c2ccc(F)cc2)cc1 | inactive: -0.126%
O=C(NCCc1ccccc1)c1ccc(CSc2nc3ccncc3n2Cc2ccccc2F)cc1 | inactive: -17%
Cc1ccc(N2CC(NC(=O)c3ccco3)CC2=O)cc1C (stereo not drawn) | inactive: -3.76%
O=C(Nc1nnc(S(=O)(=O)N2CCCC2)s1)c1ccccc1F | inactive: 1.75%
Cc1cccc(OCC(=O)N(Cc2ccc(C(C)C)cc2)Cc2ccco2)c1C | inactive: -11.8%
CCN(C(=O)c1nn(-c2ccc(C)cc2)c(=O)c2c1c1ccccc1n2C)c1ccc(F)cc1 | inactive: -4.58%
COc1ccc(CNC(=O)CN2C(=O)CSc3ccc(S(=O)(=O)N4CCCC4)cc32)cc1 | inactive: -20.9%
CCCCNC(=O)CN1C(=O)COc2ccc(S(=O)(=O)N3CCCC3)cc21 | inactive: -4.38%

SMILES | activation
CCCn1c2ccccc2c2cnn(CC(=O)NCc3cc(OC)ccc3OC)c(=O)c21 | inactive: -14.6%
O=C(Nc1ccccc1OCc1cc(=O)n2ccccc2n1)c1ccccc1F | inactive: -8.03%
CC1=C(C(=O)OCC2CCCCC2)C(c2ccc(Cl)cc2Cl)CC(=O)N1 (stereo not drawn) | inactive: -5.14%
CSc1cccc(NC(=O)Cn2cnc(S(=O)(=O)N3CCCC3)c2)c1 | inactive: -8.77%
Cc1ccc(C)c(Nc2nc3nonc3nc2Nc2cccc(C)c2C)c1 | inactive: -5.86%
COc1ccc(Cl)cc1NC(=O)N1CCC(CN2CCCCCC2)CC1 | inactive: -5.7%
Cc1cccc(Cn2cc(C(=O)Nc3ccc(S(N)(=O)=O)cc3)ccc2=O)c1 | inactive: -7.72%
CCc1ccccc1NC(=O)C(C)n1nc(-c2ccc(C)c(C)c2)ccc1=O (stereo not drawn) | inactive: -10.6%
COc1ccc(NC(=O)CN(C)S(=O)(=O)c2cccc3nsnc23)cc1 | inactive: -13.9%
COC(=O)N/N=C/c1c[n+]([O-])c2ccccc2[n+]1[O-] | inactive: 5.88%
COc1cc2nc(Nc3ccc(F)cc3)nc(N)c2cc1OC | inactive: -7.69%
COC(=O)c1ccc(Cn2nnc3sc4c(c3c2=O)CCCC4)cc1 | inactive: -15.4%
COc1ccc(CNC(=O)C(=O)NCC(c2ccco2)S(=O)(=O)c2ccc(C)cc2)cc1 (stereo not drawn) | inactive: 2.76%
CCOC(=O)c1cccc(NC(=O)C(Cc2ccccc2)NS(=O)(=O)c2cccc3nsnc23)c1 (stereo not drawn) | inactive: -5.88%
CC(=O)c1ccc(NC(=O)c2nc3ccccc3n(C)c2=O)cc1 | inactive: -21%
CN(C(=O)CN(CCO)CC(=O)N(C)C(C)(C)Cc1ccccc1)C(C)(C)Cc1ccccc1 | inactive: -7.63%
CCn1nc(C)c2c(-c3ccccc3)cc(=O)n(C(C)C(=O)NCc3ccc(C)cc3)c21 (stereo not drawn) | inactive: -33.4%
CCCCCNC(=O)CCn1c(=O)[nH]c2ccccc2c1=O | inactive: -15.8%
CCN(CC)c1ccc(NC(=O)c2cc3c(=O)n4cccc(C)c4nc3n2C)c(C)c1 | inactive: 1.26%
O=C(CSC1=Nc2ccccc2N=C(c2ccc(F)cc2)C1)NCc1ccc(Cl)cc1 | inactive: -13.5%
Cc1cc(S(=O)(=O)NCC(c2ccc(N(C)C)cc2)N2CCOCC2)ccc1F (stereo not drawn) | inactive: -11.1%

SMILES | activation
Cc1ccc(CN(C(=O)COc2ccc(Cl)cc2Cl)C2CCS(=O)(=O)C2)o1 (stereo not drawn) | inactive: -17.8%
Cc1[nH]c(=O)[nH]c(=O)c1S(=O)(=O)N1CCN(c2cccc(Cl)c2)CC1 | inactive: -5.11%
COc1ccc(/C=C/c2nc3ccccc3c(=O)n2-c2cccc(C(F)(F)F)c2)cc1 | inactive: -15.9%
N#Cc1c(Nc2cccc(F)c2)sc(C(=O)c2ccc(Cl)cc2)c1N | inactive: -11.9%
CCN(c1ccccc1)S(=O)(=O)c1ccc2[nH]cc(C(=O)NCc3ccc(C)cc3)c(=O)c2c1 | inactive: -0.701%
Clc1ccc(CNc2cc(-c3ccccc3)nc3nncn23)cc1 | inactive: -23.3%
Cc1ccc(C)c(CN2C(=O)CSc3ccc(C(=O)NCCc4ccc(Cl)cc4)cc32)c1 | inactive: -6.83%
CCCNC(=O)Cn1nc(-c2ccc(C)c(C)c2)c2cnc3ccc(F)cc3c21 | inactive: -19.2%
O=C(Nc1cccc(C(F)(F)F)c1)Nc1nnc(N2CCCCC2)s1 | inactive: 0.8%
COc1ccccc1CNC(=O)CN1C(=O)CCn2nc(-c3ccccc3)cc21 | inactive: -17.5%
COc1ccc(-c2nc3sc(CCNS(=O)(=O)c4ccc(F)c(C)c4)c(C)n3n2)cc1 | inactive: -16.6%
Cc1ccc(OCC(=O)Nc2ccc3nc(Nc4cccc(Cl)c4)cc(C)c3c2)cc1 | inactive: -10.6%
Cc1cc(C)nc(NS(=O)(=O)c2ccc(N)cc2)n1 | inactive: -12.9%
COc1ccc(N2CC(NC(=O)c3ccc(OC(C)C)cc3)CC2=O)cc1 (stereo not drawn) | inactive: -18.1%
CCc1ccccc1NC(=O)Nc1cc(C(=O)NCc2ccc(OC)cc2)ccc1N1CCCC1 | inactive: -12.9%
Cc1noc(C)c1S(=O)(=O)N1CCCC(C(=O)Nc2ccc(C(C)C)cc2)C1 (stereo not drawn) | inactive: -5.32%
O=C(c1ccccc1)n1nc(-c2ccco2)nc1NCc1ccccc1Cl | inactive: -21.5%
COc1cc(NS(=O)(=O)c2ccc(N)cc2)ncn1 | inactive: -13.3%
COc1ccc(N(C(=O)COc2ccccc2OC)S(=O)(=O)c2ccc(Cl)cc2)cc1 | inactive: -27.3%
CCOCCCNC(=O)c1cc2c(=O)[nH]c3ccccc3c2n1C | inactive: -10.5%
CC1(C)O[C@@H]2C[C@H]3[C@@H]4C[C@H](F)C5=CC(=O)C=C[C@]5(C)[C@@]4(F)[C@@H](O)C[C@]3(C)[C@]2(C(=O)CO)O1 | inactive: -13.9%
